The other results are listed elsewhere or left out.
Legend:
Assay in all cases: glycan array binding signal (z-score within array); higher = stronger binding
Details in all cases: glycan notation: IUPAC condensed, linker removed
[1] = target: Gal(b1-3)GlcNAc(b1-6)[Gal(b1-3)]GalNAc
Summary of the method: (§1)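 Glycan array data were curated from 3228 arrays in the Consortium for Functional Glycomics database and kept only where the protein sequence was available. Glycan names were converted to IUPAC-condensed notation, and columns mapping to the same glycan were averaged. The binding signal is a within-array Z-score, averaged across arrays of the same protein sequence at different concentrations or buffers and across linkers. Negative Z-scores can be read as non-binding.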

Gal(b1-3)GlcNAc6S = target: Gal(b1-3)GlcNAc6S
Summary of the method: as §1

[2] = target: Gal(b1-3)[Fuc(a1-4)]GlcNAc
Summary of the method: as §1

[3] = target: Gal(b1-3)[Fuc(a1-4)]GlcNAc(b1-2)Man
Summary of the method: as §1

[4] = target: Gal(b1-3)[Fuc(a1-4)]GlcNAc(b1-2)Man(a1-3)[Gal(b1-3)[Fuc(a1-4)]GlcNAc(b1-2)Man(a1-6)]Man(b1-4)GlcNAc(b1-4)[Fuc(a1-6)]GlcNAc
Summary of the method: as §1

[5] = target: Gal(b1-3)[Fuc(a1-4)]GlcNAc(b1-3)Gal(b1-3)[Fuc(a1-4)]GlcNAc
Summary of the method: as §1

[6] = target: Gal(b1-3)[Fuc(a1-4)]GlcNAc(b1-3)Gal(b1-4)[Fuc(a1-3)]GlcNAc
Summary of the method: as §1

[7] = target: Gal(b1-3)[Fuc(a1-4)]GlcNAc(b1-6)GalNAc
Summary of the method: as §1

[8] = target: Gal(b1-3)[GlcNAc(b1-6)]GalNAc
Summary of the method: as §1

[9] = target: Gal(b1-3)[Neu5Ac(a2-6)]GalNAc
Summary of the method: as §1

[10] = target: Gal(b1-3)[Neu5Ac(a2-6)]GlcNAc(b1-4)Gal(b1-4)Glc
Summary of the method: as §1

[11] = target: Gal(b1-3)[Neu5Ac(b2-6)]GalNAc
Summary of the method: as §1

Gal(b1-4)Gal = target: Gal(b1-4)Gal
Summary of the method: as §1

[12] = target: Gal(b1-4)GalNAc(a1-3)[Fuc(a1-2)]Gal(b1-4)GlcNAc
Summary of the method: as §1

[13] = target: Gal(b1-4)GalNAc(b1-3)[Fuc(a1-2)]Gal(b1-4)GlcNAc
Summary of the method: as §1

Gal(b1-4)Glc = target: Gal(b1-4)Glc
Summary of the method: as §1

Gal(b1-4)Glc6S = target: Gal(b1-4)Glc6S
Summary of the method: as §1

Gal(b1-4)GlcNAc = target: Gal(b1-4)GlcNAc
Summary of the method: as §1

[14] = target: Gal(b1-4)GlcNAc(a1-6)Gal(b1-4)GlcNAc
Summary of the method: as §1

Gal(b1-4)GlcNAc(b1-2)Man = target: Gal(b1-4)GlcNAc(b1-2)Man
Summary of the method: as §1

[15] = target: Gal(b1-4)GlcNAc(b1-2)Man(a1-3)Man(b1-4)GlcNAc(b1-4)GlcNAc
Summary of the method: as §1

[16] = target: Gal(b1-4)GlcNAc(b1-2)Man(a1-3)[Gal(b1-4)GlcNAc(b1-2)Man(a1-6)]Man(b1-4)GlcNAc(b1-4)GlcNAc
Summary of the method: as §1

[17] = target: Gal(b1-4)GlcNAc(b1-2)Man(a1-3)[Gal(b1-4)GlcNAc(b1-2)Man(a1-6)]Man(b1-4)GlcNAc(b1-4)[Fuc(a1-6)]GlcNAc
Summary of the method: as §1

[18] = target: Gal(b1-4)GlcNAc(b1-2)Man(a1-3)[Gal(b1-4)GlcNAc(b1-2)Man(a1-6)][Gal(b1-4)GlcNAc(b1-4)]Man(b1-4)GlcNAc(b1-4)[Fuc(a1-6)]GlcNAc
Summary of the method: as §1

[19] = target: Gal(b1-4)GlcNAc(b1-2)Man(a1-3)[Gal(b1-4)GlcNAc(b1-2)Man(a1-6)][GlcNAc(b1-4)]Man(b1-4)GlcNAc(b1-4)[Fuc(a1-6)]GlcNAc
Summary of the method: as §1

[20] = target: Gal(b1-4)GlcNAc(b1-2)Man(a1-3)[GlcNAc(b1-2)Man(a1-6)]Man(b1-4)GlcNAc(b1-4)GlcNAc
Summary of the method: as §1

[21] = target: Gal(b1-4)GlcNAc(b1-2)Man(a1-3)[GlcNAc(b1-4)][Gal(b1-4)GlcNAc(b1-2)Man(a1-6)]Man(b1-4)GlcNAc(b1-4)GlcNAc
Summary of the method: as §1

[22] = target: Gal(b1-4)GlcNAc(b1-2)Man(a1-3)[Man(a1-6)]Man(b1-4)GlcNAc(b1-4)GlcNAc
Summary of the method: as §1

[23] = target: Gal(b1-4)GlcNAc(b1-2)Man(a1-6)Man(b1-4)GlcNAc(b1-4)GlcNAc
Summary of the method: as §1

[24] = target: Gal(b1-4)GlcNAc(b1-2)Man(a1-6)[GlcNAc(b1-2)Man(a1-3)]Man(b1-4)GlcNAc(b1-4)GlcNAc
Summary of the method: as §1

[25] = target: Gal(b1-4)GlcNAc(b1-2)Man(a1-6)[Man(a1-3)]Man(b1-4)GlcNAc(b1-4)GlcNAc
Summary of the method: as §1

[26] = target: Gal(b1-4)GlcNAc(b1-2)[Gal(b1-4)GlcNAc(b1-4)]Man(a1-3)[Gal(b1-4)GlcNAc(b1-2)Man(a1-6)]Man(b1-4)GlcNAc(b1-4)GlcNAc
Summary of the method: as §1

[27] = target: Gal(b1-4)GlcNAc(b1-2)[Gal(b1-4)GlcNAc(b1-4)]Man(a1-3)[Gal(b1-4)GlcNAc(b1-2)[Gal(b1-4)GlcNAc(b1-6)]Man(a1-6)]Man(b1-4)GlcNAc(b1-4)GlcNAc
Summary of the method: as §1

[28] = target: Gal(b1-4)GlcNAc(b1-2)[Gal(b1-4)GlcNAc(b1-4)]Man(a1-3)[GlcNAc(b1-4)][Gal(b1-4)GlcNAc(b1-2)Man(a1-6)]Man(b1-4)GlcNAc(b1-4)GlcNAc
Summary of the method: as §1

[29] = target: Gal(b1-4)GlcNAc(b1-2)[Gal(b1-4)GlcNAc(b1-4)]Man(a1-3)[GlcNAc(b1-4)][Gal(b1-4)GlcNAc(b1-2)[Gal(b1-4)GlcNAc(b1-6)]Man(a1-6)]Man(b1-4)GlcNAc(b1-4)GlcNAc
Summary of the method: as §1

[30] = target: Gal(b1-4)GlcNAc(b1-2)[Gal(b1-4)GlcNAc(b1-6)]Man(a1-6)[Gal(b1-4)GlcNAc(b1-2)Man(a1-3)]Man(b1-4)GlcNAc(b1-4)GlcNAc
Summary of the method: as §1

[31] = target: Gal(b1-4)GlcNAc(b1-2)[Gal(b1-4)GlcNAc(b1-6)]Man(a1-6)[Gal(b1-4)GlcNAc(b1-2)Man(a1-3)]Man(b1-4)GlcNAc(b1-4)[Fuc(a1-6)]GlcNAc
Summary of the method: as §1

B1: Epa22 (Candida glabrata) (protein)
chain: MGSSHHHHHHSSGLVPRGSHMKRALSSQNPFGYPIGCSPQSTNVIPGLTMELYSYPIVSGTPPNCYDASYVDPEYPRTGYLKRKMIGKSTGVTGSLNYKFSVEKACMVKYGNLPAGYNYNEPLTVSNFTMLLYGYFKPQTSGIHTFFVNADDLLYINFGAGNAFDCCKREDSKFKLGEYVAYDIWHVDSSKNKVSLNLEKDVYYPIRMFFNNIGKDSSLDLSFSVNGAVEHITDFSGYLYSVPDQPDACPAPIGYDTTCK
[1]
  glycan array binding signal (z-score): 0.077
Gal(b1-3)GlcNAc6S
  glycan array binding signal (z-score): 3
[2]
  glycan array binding signal (z-score): -0.364
[3]
  glycan array binding signal (z-score): -0.09
[4]
  glycan array binding signal (z-score): -0.319
[5]
  glycan array binding signal (z-score): -0.302
[6]
  glycan array binding signal (z-score): -0.299
[7]
  glycan array binding signal (z-score): -0.258
[8]
  glycan array binding signal (z-score): -0.179
[9]
  glycan array binding signal (z-score): -0.111
[10]
  glycan array binding signal (z-score): 0.033
[11]
  glycan array binding signal (z-score): -0.402
Gal(b1-4)Gal
  glycan array binding signal (z-score): -0.114
[12]
  glycan array binding signal (z-score): -0.29
[13]
  glycan array binding signal (z-score): -0.224
Gal(b1-4)Glc
  glycan array binding signal (z-score): 1.07
Gal(b1-4)Glc6S
  glycan array binding signal (z-score): 2.16
Gal(b1-4)GlcNAc
  glycan array binding signal (z-score): 0.616
[14]
  glycan array binding signal (z-score): 2.37
Gal(b1-4)GlcNAc(b1-2)Man
  glycan array binding signal (z-score): -0.267
[15]
  glycan array binding signal (z-score): -0.308
[16]
  glycan array binding signal (z-score): -0.382
[17]
  glycan array binding signal (z-score): -0.365
[18]
  glycan array binding signal (z-score): -0.368
[19]
  glycan array binding signal (z-score): -0.328
[20]
  glycan array binding signal (z-score): -0.309
[21]
  glycan array binding signal (z-score): -0.367
[22]
  glycan array binding signal (z-score): -0.194
[23]
  glycan array binding signal (z-score): -0.185
[24]
  glycan array binding signal (z-score): -0.365
[25]
  glycan array binding signal (z-score): -0.385
[26]
  glycan array binding signal (z-score): -0.298
[27]
  glycan array binding signal (z-score): -0.321
[28]
  glycan array binding signal (z-score): -0.298
[29]
  glycan array binding signal (z-score): -0.372
[30]
  glycan array binding signal (z-score): -0.087
[31]
  glycan array binding signal (z-score): -0.331
